Where “and” joins values, the source holds several entries; their conditions need not be identical. Equal values may be shown once. The shares of active, inactive and inconclusive entries below differ from those in the screen. For part of these data: A potency beside an inconclusive call is a rough fit, not a confirmed value. Calls of active or inactive are those of the source. Calls come from the whole dose curve; as a rule, active = well fitted curve in the direction sought with a large enough effect; inconclusive = small, poorly fitted or top-dose-only effect, or another doubt; inactive = no such curve, though single readings can be large; an effect the other way counts as inactive or inconclusive.
Tests used:
[1] = qHTS of pediatric cancer cell lines to identify multiple opportunities for drug repurposing: Primary screen for SK-N-MC cells (AID 1347093); details: SK-N-MC viability, CellTiter-Glo luminescence, 48 h; activity change, negative = cytotoxic: at 46 µM (top of the series) unless noted
Method in brief: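 Metabolically active cells were quantified by ATP-dependent luminescence (CellTiter-Glo, 15 min at room temperature) following 48 h treatment. Cells had been plated at 500-1,000 per well and settled for 5 h beforehand.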

[2] = qHTS of pediatric cancer cell lines to identify multiple opportunities for drug repurposing: Primary screen for Saos-2 cells (AID 1347097); details: Saos-2 viability, CellTiter-Glo ATP luminescence, 48 h; activity change, negative = cytotoxic: at 46 µM (top of the series) unless noted; note: nearly all actives have a fitted effect of over 40% in size
Method in brief: (§1)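 Readout: CellTiter-Glo luminescence, 48 h treatment. Controls DMSO (neutral) and bortezomib 2.3 µM final (positive). Potency and efficacy taken from primary-screen concentration-response curves.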

[3] = qHTS of pediatric cancer cell lines to identify multiple opportunities for drug repurposing: Primary screen for SK-N-SH cells (AID 1347098); details: SK-N-SH viability, CellTiter-Glo luminescence, 48 h; activity change, negative = cytotoxic: at 57 µM (top of the series) unless noted; note: nearly all actives have a fitted effect of over 65% in size
Method in brief: (§2)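 Cells (500-1,000/well) rested 5 h, then received compounds for 48 h; metabolically active cells were measured by CellTiter-Glo luminescence. Final concentrations spanned up to 46 µM (MIPE, 11-point) or 0.59 nM-46 µM (NPC, 8-point) in primary screens, 11-point in follow-ups.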

[4] = qHTS of pediatric cancer cell lines to identify multiple opportunities for drug repurposing: Primary screen for NB1643 cells (AID 1347099); note: nearly all actives have a fitted effect of over 50% in size
Method in brief: as §1

[5] = qHTS of pediatric cancer cell lines to identify multiple opportunities for drug repurposing: Primary screen for BT-12 cells (AID 1347101); note: nearly all actives have a fitted effect of over 25% in size
Method in brief: as §2

[6] = qHTS of pediatric cancer cell lines to identify multiple opportunities for drug repurposing: Primary screen for U-2 OS cells (AID 1347096); note: nearly all actives have a fitted effect of over 50% in size
Method in brief: as §2

[7] = qHTS of pediatric cancer cell lines to identify multiple opportunities for drug repurposing: Primary screen for LAN-5 cells (AID 1347100); details: LAN-5 neuroblastoma viability, CellTiter-Glo luminescence, 48 h; activity change, negative = cytotoxic: at 46 µM (top of the series) unless noted
Method in brief: as §2

[8] = qHTS of pediatric cancer cell lines to identify multiple opportunities for drug repurposing: Primary screen for Rh18 cells (AID 1347102); note: nearly all actives have a fitted effect of over 65% in size
Method in brief: as §2
Potency is the fitted concentration of half-maximal effect; tags give direction and shape of the fitted curve.

For `C[C@@H]1[C@@H](C(=O)C[C@H]2O[C@@H]3O[C@]4(C)CC[C@@H]5[C@H](C)CC[C@@H]([C@H]2C)[C@@]35OO4)O[C@@H]2O[C@]3(C)CC[C@H]4[C@H](C)CC[C@@H]1[C@@]24OO3`, the Potency [1] was active: 372 nM, the Potency [2] was inconclusive: 235 nM [cytotoxic, full curve] and the Potency [3] was inconclusive: 30400 nM [cytotoxic, partial curve]. The Potency [4] was active: 4.69 µM and the Potency [5] was active: 432 nM.

In the case of `O=[N+]([O-])c1cc([As](=O)(O)O)ccc1O`, the Potency [1] is reported as “inactive”, the Potency [6] is reported as “inactive” and the Potency [4] is reported as “inactive”. For the same molecule, the Potency [7] was “inactive”.

In the case of `C[C@H]1CCCC=CC2C[C@H](O)C[C@@H]2[C@H](O)C=CC(=O)O1` (stereo partly specified), the Potency [1] is reported as active: 1 nM, the Potency [6] is reported as active: 1 nM and the Potency [7] is reported as active: 1 nM.

For `COc1ccc(CC2NCCc3cc(OC)c(OC)cc32)cc1OC` (stereo unspecified), the Potency [1] was inconclusive: 37200 nM [cytotoxic, single point], the Potency [2] was “inactive” and the Potency [4] was inconclusive: 29.6 µM [cytotoxic, single point].

In the case of `C[C@@H]1O[C@@H](O[C@H]2C[C@@H](O)[C@]3(CO)[C@H]4[C@H](O)C[C@]5(C)[C@@H](C6=CC(=O)OC6)CC[C@]5(O)[C@@H]4CC[C@]3(O)C2)[C@H](O)[C@H](O)[C@H]1O`, the Potency [1] is reported as active: 16.6 nM and active: 23.7 nM, the Potency [6] is reported as inconclusive: 59 nM [cytotoxic, full curve] and inconclusive: 84.1 nM [cytotoxic, full curve] and the Potency [2] is reported as active: 59 nM and active: 75 nM. The Potency [4] was active: 187 nM and active: 299 nM, the Potency [7] was active: 46.9 nM and active: 211 nM and the Potency [8] was inconclusive: 13.2 nM [cytotoxic, full curve] and inconclusive: 29.9 nM [cytotoxic, full curve].

Reference: PubChem BioAssay (NCATS)
